# Source: the supplement of paper PMC4604168 (melanoma cell lines)
# The list shows a part of the results. Most values come without repeats; read them as rough.
# Columns and labels:
# Assay in all cases: cell count relative to DMSO control; melanoma cells; higher = more viable cells
# Conditions in all cases: library dose: low library concentration; 72 h
# MZ2-MEL = tested on: MZ2-MEL
# MeWo = tested on: MeWo
# RPMI7951 = tested on: RPMI7951
# RVH-421 = tested on: RVH-421
# SkMel28 = tested on: SkMel28
# SkMel2 = tested on: SkMel2
# SkMel30 = tested on: SkMel30
# SkMel5 = tested on: SkMel5
# UACC257 = tested on: UACC257
# UACC62 = tested on: UACC62
# WM115 = tested on: WM115
# WM1716 = tested on: WM1716
# WM1745 = tested on: WM1745
# WM3526 = tested on: WM3526
# WM3619 = tested on: WM3619
# WM451Lu = tested on: WM451Lu
# 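Note: cell number obtained by counting DAPI-stained nuclei in high-throughput microscope images with image analysis software, screen run in 1,536-well plates.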
Compound,cell count (MZ2-MEL),cell count (MeWo),cell count (RPMI7951),cell count (RVH-421),cell count (SkMel28),cell count (SkMel2),cell count (SkMel30),cell count (SkMel5),cell count (UACC257),cell count (UACC62),cell count (WM115),cell count (WM1716),cell count (WM1745),cell count (WM3526),cell count (WM3619),cell count (WM451Lu)
"C=CCNC1=C2C[C@@H](C)C[C@H](OC)[C@H](O)[C@@H](C)/C=C(\C)[C@H](OC(N)=O)[C@@H](OC)/C=C\C=C(/C)C(=O)NC(=CC1=O)C2=O [Tanespimycin] + CC(C)(C)c1cnc(CSc2cnc(NC(=O)C3CCNCC3)s2)o1 [SNS-032] (first compound 0.002 µM, partner dose 0.01 µM)",103%,107%,73.7%,116%,105%,90.8%,113%,95.6%,101%,80.3%,103%,90.6%,125%,88.1%,114%,99.4%
"CS(=O)(=O)CCNCc1ccc(-c2ccc3ncnc(Nc4ccc(OCc5cccc(F)c5)c(Cl)c4)c3c2)o1 [lapatinib] + CCCS(=O)(=O)Nc1ccc(F)c(C(=O)c2c[nH]c3ncc(Cl)cc23)c1F [PLX4720] (first compound 0.8 µM, partner dose 0.08 µM)",83.9%,98.4%,99.7%,104%,97.3%,99.8%,101%,–,–,76.7%,95.6%,108%,96.4%,72%,97.1%,120%
"C[C@@H](Oc1cc(-c2cnn(C3CCNCC3)c2)cnc1N)c1c(Cl)ccc(F)c1Cl [Crizotinib] + CCCCCCCCCCCC1=C(O)C(=O)C=C(O)C1=O [Embelin] (first compound 0.2 µM, partner dose 1.2 µM)",102%,101%,111%,137%,108%,103%,107%,108%,111%,105%,97.5%,113%,105%,111%,101%,84.1%
"C[C@@H](Oc1cc(-c2cnn(C3CCNCC3)c2)cnc1N)c1c(Cl)ccc(F)c1Cl [Crizotinib] + C[C@@H]1CCN(C(=O)CC#N)C[C@@H]1N(C)c1ncnc2[nH]ccc12 [CP690550] (first compound 0.2 µM, partner dose 1 µM)",108%,109%,105%,87.8%,106%,95.8%,117%,117%,94.4%,97%,99.8%,106%,98.6%,97.5%,117%,95.3%
"C[C@@H](Oc1cc(-c2cnn(C3CCNCC3)c2)cnc1N)c1c(Cl)ccc(F)c1Cl [Crizotinib] + O=C(O)C(=O)Nc1sc2c(c1C(=O)O)CCNC2 [TCS401] (first compound 0.2 µM, partner dose 1.66667 µM)",101%,99.2%,102%,83%,85%,103%,112%,88.8%,104%,94.8%,95.8%,124%,86.2%,84.7%,119%,104%
"C=CCNC1=C2C[C@@H](C)C[C@H](OC)[C@H](O)[C@@H](C)/C=C(\C)[C@H](OC(N)=O)[C@@H](OC)/C=C\C=C(/C)C(=O)NC(=CC1=O)C2=O [Tanespimycin] + CC1(C)NC(=O)N(c2ccc([N+](=O)[O-])c(C(F)(F)F)c2)C1=O [nilutamide] (first compound 0.002 µM, partner dose 1 µM)",108%,101%,94%,122%,103%,99%,113%,84%,89.3%,98.4%,87.1%,137%,113%,104%,90.1%,76.4%
"C[C@@H](Oc1cc(-c2cnn(C3CCNCC3)c2)cnc1N)c1c(Cl)ccc(F)c1Cl [Crizotinib] + Cn1cc(/C=C2\C(=O)Nc3cccnc32)c2ccccc21 [GW441756] (first compound 0.2 µM, partner dose 0.4 µM)",100%,99.4%,113%,126%,98.9%,104%,78.8%,91.9%,91.2%,88.9%,97.6%,113%,104%,105%,116%,140%
"CN1CCN(c2ccc3nc(-c4c(N)c5c(F)cccc5[nH]c4=O)[nH]c3c2)CC1 [Dovitinib] + Nc1ncn([C@H]2C[C@H](O)[C@@H](CO)O2)c(=O)n1 [decitabine] (first compound 0.1 µM, partner dose 0.1 µM)",69.9%,88.3%,87.4%,98.4%,76.9%,99.6%,68.7%,–,–,62%,82.8%,84.3%,75.4%,77.6%,81.5%,98.7%
"CN1CCN(c2ccc3nc(-c4c(N)c5c(F)cccc5[nH]c4=O)[nH]c3c2)CC1 [Dovitinib] + CC1(C)NC(=O)N(c2ccc([N+](=O)[O-])c(C(F)(F)F)c2)C1=O [nilutamide] (first compound 0.1 µM, partner dose 1 µM)",94.1%,97.5%,125%,98.2%,89.7%,109%,77%,92.6%,96.4%,93.2%,87%,114%,102%,71.7%,99.9%,118%
"C[C@@H](Oc1cc(-c2cnn(C3CCNCC3)c2)cnc1N)c1c(Cl)ccc(F)c1Cl [Crizotinib] + CCc1ccc(CCOc2ccc(CC3SC(=O)NC3=O)cc2)nc1 [pioglitazone] (first compound 0.2 µM, partner dose 2 µM)",102%,107%,102%,94.6%,88.4%,90.5%,95.6%,95.5%,104%,103%,119%,103%,101%,96.6%,108%,65.6%
"CS(=O)(=O)CCNCc1ccc(-c2ccc3ncnc(Nc4ccc(OCc5cccc(F)c5)c(Cl)c4)c3c2)o1 [lapatinib] + O=C(O)C(=O)Nc1sc2c(c1C(=O)O)CCNC2 [TCS401] (first compound 0.8 µM, partner dose 1.66667 µM)",92.8%,90.3%,105%,91.9%,104%,94.6%,96.9%,99.3%,95%,97.9%,111%,112%,87.7%,95.3%,108%,93.8%
"CNC(=O)c1cc(Oc2ccc(NC(=O)Nc3ccc(Cl)c(C(F)(F)F)c3)cc2)ccn1 [sorafenib] + c1cc(-c2cnn3cc(-c4ccc(OCCN5CCCCC5)cc4)cnc23)ccn1 [Dorsomorphin] (first compound 0.4 µM, partner dose 0.4 µM)",99.2%,92.4%,76.2%,83.7%,109%,103%,88.9%,87.3%,77.6%,93.1%,97.6%,87.1%,88.8%,95.6%,130%,108%
"CNC(=O)c1cc(Oc2ccc(NC(=O)Nc3ccc(Cl)c(C(F)(F)F)c3)cc2)ccn1 [sorafenib] + OCCn1cc(-c2cnc3nnn(Cc4ccc5ncccc5c4)c3n2)cn1 [PF04217903] (first compound 0.4 µM, partner dose 1 µM)",94.3%,99.9%,84.1%,95.9%,103%,96.6%,121%,101%,129%,92%,89.4%,90.3%,81.2%,95.5%,118%,69.6%
"C[C@@H](Oc1cc(-c2cnn(C3CCNCC3)c2)cnc1N)c1c(Cl)ccc(F)c1Cl [Crizotinib] + COc1cc(N2CCC(N3CCN(C)CC3)CC2)ccc1Nc1ncc(Cl)c(Nc2ccccc2S(=O)(=O)C(C)C)n1 [NVP-TAE684] (first compound 0.2 µM, partner dose 0.08 µM)",111%,83.9%,93.2%,108%,81.1%,92.6%,102%,79.3%,68.3%,92.6%,88.2%,122%,87.8%,90.8%,120%,124%
"CS(=O)(=O)CCNCc1ccc(-c2ccc3ncnc(Nc4ccc(OCc5cccc(F)c5)c(Cl)c4)c3c2)o1 [lapatinib] + Cc1cc([N+](=O)[O-])ccc1NS(=O)(=O)c1cc(Cl)ccc1Cl [FH535] (first compound 0.8 µM, partner dose 1 µM)",84%,92.6%,91.8%,101%,91.1%,93.6%,97.1%,89.6%,92.3%,74%,88.9%,94.7%,81.3%,90.6%,89%,111%
"C[C@@H](Oc1cc(-c2cnn(C3CCNCC3)c2)cnc1N)c1c(Cl)ccc(F)c1Cl [Crizotinib] + CN(C)S(=O)(=O)c1ccc2c(c1)/C(=C/c1cc3c([nH]1)CCCC3)C(=O)N2 [SU6656] (first compound 0.2 µM, partner dose 0.4 µM)",105%,80.3%,100%,102%,79.1%,102%,93.5%,87.2%,87.7%,85.6%,73.8%,109%,92.1%,92.3%,103%,86.6%
"C=CCNC1=C2C[C@@H](C)C[C@H](OC)[C@H](O)[C@@H](C)/C=C(\C)[C@H](OC(N)=O)[C@@H](OC)/C=C\C=C(/C)C(=O)NC(=CC1=O)C2=O [Tanespimycin] + O=C1NC(=O)/C(=C/c2ccc(-c3ccc(F)cc3O)o2)S1 [AS252424] (first compound 0.002 µM, partner dose 1 µM)",103%,116%,96.6%,89.6%,108%,99.1%,85.9%,96.5%,108%,108%,90.5%,110%,79.5%,84.8%,82.7%,103%
